Laboratory results taken from the supplement of paper PMC5919970.
Counter-ions that a name gives are not always drawn. Over roughly 2,000 compounds, “fractional viability relative to vehicle” has its median near 0.91; the lowest 2% begin near 0.045. Some of the results follow.

Tested on: TYKNU
Assay: fractional viability relative to vehicle; TYKNU is a high-grade serous ovarian cancer line; higher = less growth inhibition
Conditions: 72 h
Outline: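 TYKNU control cells or lentiCRISPRv2 knockout derivatives were plated at 500 cells per well in duplicate into drug-stamped 384-well plates holding a ~2100-compound library at 2 or 10 μM. Culture was in RPMI 1640 with 10% FBS at 37 °C in 5% CO2, with 72 h of drug treatment. Viability was measured by Cell Titer Glo luminescence, and the averaged duplicate treatment wells were normalised to duplicate control wells at the same plate position.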

[1] = 2uM, genotype: DNM1L knockout (sgDNM1L #1)
[2] = 2uM, genotype: sgCTRLA1 (non-targeting control)
[3] = 10uM, genotype: DNM1L knockout (sgDNM1L #1)
[4] = 10uM, genotype: sgCTRLA1 (non-targeting control)

Work on `CCCCC1C(=O)N(c2ccccc2)N(c2ccccc2)C1=O` [Phenylbutazone] yielded a fractional viability [1] of 1.04, a fractional viability [2] of 1.12 and a fractional viability [3] of 0.94. The fractional viability [4] was 1.1.

With `Nc1ncnc2c1nc(Br)n2[C@@H]1O[C@@H]2COP(=O)(O)O[C@H]2[C@H]1O` [8-Bromo-cAMP] the fractional viability [1] was 0.579, the fractional viability [2] was 0.676 and the fractional viability [3] was 0.481. It also gave a fractional viability [4] of 0.386.

Molecule `COCCCOc1cc(C[C@@H](C[C@H](N)[C@@H](O)C[C@H](C(=O)NCC(C)(C)C(N)=O)C(C)C)C(C)C)ccc1OC` [Aliskiren Hemifumarate] has a fractional viability [1] of 0.931, a fractional viability [2] of 1.1 and a fractional viability [3] of 0.879. The fractional viability [4] was 1.03.

`CCCc1nc2c(C)cc(-c3nc4ccccc4n3C)cc2n1Cc1ccc(-c2ccccc2C(=O)O)cc1` [Telmisartan] gave a fractional viability [1] of 1, a fractional viability [2] of 1.18 and a fractional viability [3] of 0.835. It also gave a fractional viability [4] of 1.06.

`Cc1ccc(C(=O)N(CCCN)[C@@H](c2nc3cc(Cl)ccc3c(=O)n2Cc2ccccc2)C(C)C)cc1` showed a fractional viability [1] of 0.325, a fractional viability [2] of 0.437 and a fractional viability [3] of 0.107. The fractional viability [4] was 0.105.

Work on `CC(=O)/N=c1/sc(S(N)(=O)=O)nn1C` [Methazolamide] yielded a fractional viability [1] of 1.05, a fractional viability [2] of 1.16 and a fractional viability [3] of 0.883. It also gave a fractional viability [4] of 1.1.

For `CC1=CC(=O)c2ccccc2C1=O` [Menadione], the fractional viability [1] was 0.872, the fractional viability [2] was 1.1 and the fractional viability [3] was 0.952. The fractional viability [4] was 0.951.

In the case of `CC(=O)NC[C@H]1CN(c2ccc(N3CCOCC3)c(F)c2)C(=O)O1` [Linezolid], the fractional viability [1] is reported as 1.3, the fractional viability [2] is reported as 1.26 and the fractional viability [3] is reported as 0.842. It also gave a fractional viability [4] of 1.04.

`Cc1nccn1CC1CCc2c(c3ccccc3n2C)C1=O` (configuration not stated) [Ondansetron HCl] was tested, and the fractional viability [1] was 0.951, the fractional viability [2] was 1.12 and the fractional viability [3] was 1.07. It also gave a fractional viability [4] of 1.08.

Molecule `COc1ccc2c(c1)c(CC(=O)OCC(=O)O)c(C)n2C(=O)c1ccc(Cl)cc1` [Acemetacin] has a fractional viability [1] of 0.906, a fractional viability [2] of 1.07 and a fractional viability [3] of 0.937. It also gave a fractional viability [4] of 1.07.

`COc1cc2c(cc1Cc1cccc(Cl)c1F)c(=O)c(C(=O)O)cn2[C@H](CO)C(C)C` [Elvitegravir (GS-9137, JTK-303)] showed a fractional viability [1] of 0.756, a fractional viability [2] of 1.03 and a fractional viability [3] of 0.277. It also gave a fractional viability [4] of 0.257.

Work on `COc1ccc2cc3[n+](cc2c1OC)CCc1cc2c(cc1-3)OCO2` [Berberine HCl] yielded a fractional viability [1] of 1.02, a fractional viability [2] of 1.01 and a fractional viability [3] of 0.716. It also gave a fractional viability [4] of 0.58.

`Cn1sc(=O)n(Cc2ccccc2)c1=O` showed a fractional viability [1] of 0.797, a fractional viability [2] of 0.735 and a fractional viability [3] of 0.0256. The fractional viability [4] was 0.00748.

`Nc1ccccc1NC(=O)c1ccc(CNc2nccc(-c3cccnc3)n2)cc1` [Mocetinostat (MGCD0103)] showed a fractional viability [1] of 0.227, a fractional viability [2] of 0.276 and a fractional viability [3] of 0.094. It also gave a fractional viability [4] of 0.118.

With `COc1cc(-c2cc(-c3ccc(N4CCNCC4)cc3)cnc2C)cc(OC)c1OC` the fractional viability [1] was 0.714, the fractional viability [2] was 1.02 and the fractional viability [3] was 0.834. It also gave a fractional viability [4] of 0.772.

Work on `Cc1ccc(S(=O)(=O)/C=C/C#N)cc1` yielded a fractional viability [1] of 0.0925, a fractional viability [2] of 0.0355 and a fractional viability [3] of 0.0225. The fractional viability [4] was 0.01.

Work on `CC(C)(C)OC(=O)Nc1ccc(-c2cc(C(=O)NCCCCCCC(=O)NO)no2)cc1` yielded a fractional viability [1] of 0.25, a fractional viability [2] of 0.337 and a fractional viability [3] of 0.0725. The fractional viability [4] was 0.056.

For `CC1=C(C(=O)O)N2C(=O)[C@@H](NC(=O)[C@H](N)c3ccccc3)[C@H]2SC1` [Cephalexin], the fractional viability [1] was 1.06, the fractional viability [2] was 1.02 and the fractional viability [3] was 0.936. The fractional viability [4] was 0.932.

With `CC[C@H](C)C(=O)O[C@H]1C[C@H](O)C=C2C=C[C@H](C)[C@H](CC[C@@H](O)C[C@@H](O)CC(=O)O)[C@H]21` [Pravastatin sodium] the fractional viability [1] was 1.05, the fractional viability [2] was 1.18 and the fractional viability [3] was 0.886. The fractional viability [4] was 1.03.

In the case of `CO[C@H]1C[C@@H]2CC[C@@H](C)[C@@](O)(O2)C(=O)C(=O)N2CCCC[C@H]2C(=O)O[C@H]([C@H](C)C[C@@H]2CC[C@H](n3cnnn3)[C@H](OC)C2)CC(=O)[C@H](C)/C=C(\C)[C@@H](O)[C@@H](OC)C(=O)[C@H](C)C[C@H](C)/C=C/C=C/C=C/1C` [Zotarolimus(ABT-578)], the fractional viability [1] is reported as 0.758, the fractional viability [2] is reported as 1.08 and the fractional viability [3] is reported as 0.802. It also gave a fractional viability [4] of 1.16.

In the case of `CCCC(=O)Nc1cccc(NC(=O)c2ccccc2Br)c1`, the fractional viability [1] is reported as 1.11, the fractional viability [2] is reported as 1.19 and the fractional viability [3] is reported as 0.939. It also gave a fractional viability [4] of 1.21.

Work on `COc1cc(-c2cc(-c3cccc(O)c3)cnc2N)cc(OC)c1OC` yielded a fractional viability [1] of 0.792, a fractional viability [2] of 0.808 and a fractional viability [3] of 0.513. For the same molecule, the fractional viability [4] was 0.35.

Molecule `COc1cc2ncnc(Nc3ccc(O)c(Br)c3)c2cc1OC` has a fractional viability [1] of 1.41, a fractional viability [2] of 1.16 and a fractional viability [3] of 0.847. For the same molecule, the fractional viability [4] was 0.904.

In the case of `O=C(O)c1ccc(O)c2ncccc12`, the fractional viability [1] is reported as 0.788, the fractional viability [2] is reported as 1.2 and the fractional viability [3] is reported as 0.651. For the same molecule, the fractional viability [4] was 1.01.

Work on `CC[C@@]1(O)C(=O)OCc2c1cc1n(c2=O)Cc2cc3c(CN(C)C)c(O)ccc3nc2-1` [Topotecan HCl] yielded a fractional viability [1] of 0.148, a fractional viability [2] of 0.164 and a fractional viability [3] of 0.0758. The fractional viability [4] was 0.0974.

`Nc1nnc(-c2cccc(Cl)c2Cl)c(N)n1` [Lamotrigine] was tested, and the fractional viability [1] was 1.13, the fractional viability [2] was 1.28 and the fractional viability [3] was 0.784. For the same molecule, the fractional viability [4] was 1.13.

With `CCOC(=O)N[C@@H]1CC[C@@H]2[C@@H](C1)C[C@H]1C(=O)O[C@H](C)[C@H]1[C@H]2/C=C/c1ccc(-c2cccc(F)c2)cn1` [Vorapaxar] the fractional viability [1] was 0.79, the fractional viability [2] was 0.886 and the fractional viability [3] was 0.79. The fractional viability [4] was 0.624.

For `Cc1cc(Nc2cc(CN3CCOCC3)c3nc(C)c(Cc4ccc(Cl)cc4F)n3n2)n[nH]1`, the fractional viability [1] was 0.855, the fractional viability [2] was 0.975 and the fractional viability [3] was 0.212. For the same molecule, the fractional viability [4] was 0.338.
